Settings: for Cli human: human microsomal fraction; for Cli mouse: mouse microsomal fraction
Method: Pooled mouse and human liver microsomes were purchased from Xenotech. Microsomes (final protein concentration 0.5 mg/mL, 5 mM MgCl2) and test compound (final substrate concentration 0.5 µM; final DMSO concentration 0.5%) in 0.1 M phosphate buffer pH 7.4 were pre-incubated at 37 °C prior to the addition of NADPH (final concentration 1 mM) to initiate the reaction. The final incubation volume was 600 µL. Control samples were included for each compound tested where 0.1 M phosphate buffer pH 7.4 was added instead of NADPH (minus NADPH). Midazolan was included as control in every experiment. Each compound was incubated for 30 min and samples (90 µL) were taken at 0, 5, 10, 20 and 30 min. The minus NADPH control was sampled at 0 and 30 min only. The reactions were stopped by the addition of 200 µL of acetonitrile:methanol (3:1) containing an internal standard, followed by centrifugation at 3700 rpm for 15 min at 4 °C to precipitate the protein. Quantitative analysis was performed using specific LC-MS/MS conditions. Data analysis: from a plot of ln peak area ratio (compound peak area/internal standard peak area) against time, the gradient of the line was determined. Subsequently, half-life and intrinsic clearance were calculated using the equations below:
Elimination rate constant(k)=(−gradient)
Intrinsic Clearance(CLint)(mL/min/g protein)=V×0.693/t1/2
where V = Incubation volume mL/g microsomal protein.

(3R,4R)-3-(4-(2-chlorophenyl)piperidin-1-yl)-4-hydroxytetrahydrothiophene 1,1-dioxide [Compound 4]
Cli human: 1.1 mL/min/g | Cli mouse: <0.5 mL/min/g

(3R,4R)-3-(4-(2-chloro-4-fluorophenyl)piperidin-1-yl)-4-hydroxytetrahydrothiophene 1,1-dioxide [Compound 5]
Cli human: 1.7 mL/min/g | Cli mouse: 73.7 mL/min/g
